According to the supplement of paper PMC3334620:
Whole data set: some 33,000 sequences, median “E-score (-0.5 to 0.5)” near -0.035, cut for the highest 2% near 0.35. The list shows a part of the results.

target: T1, Pdr3 (UniProt P33200); test: PBM E-score (8-mer binding enrichment) (E-score (-0.5 to 0.5)); higher = stronger / more preferred TF binding; most listed sequences are background and not binding sites; settings: protein concentration: 200 nM; construct: GST-full length
T1 sequence: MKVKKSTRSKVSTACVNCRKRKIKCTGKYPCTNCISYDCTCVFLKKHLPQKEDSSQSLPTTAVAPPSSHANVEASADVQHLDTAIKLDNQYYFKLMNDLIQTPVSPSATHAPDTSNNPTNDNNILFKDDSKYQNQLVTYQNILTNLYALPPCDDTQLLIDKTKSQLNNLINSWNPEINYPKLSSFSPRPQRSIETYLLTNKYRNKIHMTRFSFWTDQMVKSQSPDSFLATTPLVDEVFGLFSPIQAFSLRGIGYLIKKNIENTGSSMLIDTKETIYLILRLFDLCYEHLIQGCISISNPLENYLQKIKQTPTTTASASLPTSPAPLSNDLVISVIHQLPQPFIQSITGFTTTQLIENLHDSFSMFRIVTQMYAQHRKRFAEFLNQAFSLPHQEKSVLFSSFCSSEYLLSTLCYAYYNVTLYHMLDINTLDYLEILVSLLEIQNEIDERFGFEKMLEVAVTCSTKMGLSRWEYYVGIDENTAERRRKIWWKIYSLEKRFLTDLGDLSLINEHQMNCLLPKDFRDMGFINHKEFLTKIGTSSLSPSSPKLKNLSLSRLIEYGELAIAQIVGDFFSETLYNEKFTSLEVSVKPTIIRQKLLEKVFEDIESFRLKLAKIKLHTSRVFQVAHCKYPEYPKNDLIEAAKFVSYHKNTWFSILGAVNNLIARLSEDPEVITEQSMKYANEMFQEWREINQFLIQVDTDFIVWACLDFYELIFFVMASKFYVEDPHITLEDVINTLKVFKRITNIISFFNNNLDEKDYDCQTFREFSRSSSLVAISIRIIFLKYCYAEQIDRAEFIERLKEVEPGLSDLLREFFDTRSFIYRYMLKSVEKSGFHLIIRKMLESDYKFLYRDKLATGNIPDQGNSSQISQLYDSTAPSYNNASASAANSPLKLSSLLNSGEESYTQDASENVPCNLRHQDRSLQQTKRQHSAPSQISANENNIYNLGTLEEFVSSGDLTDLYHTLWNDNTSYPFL
In short: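 GST-tagged yeast TFs (full-length or DNA-binding domain) were made by PURExpress in vitro transcription/translation and applied at about 100-200 nM to universal all-10-mer Agilent arrays. The arrays were made double-stranded by primer extension, on fresh or once-stripped slides. Bound protein was detected with fluorescent anti-GST, and scans were normalised with masliner. Each ungapped eight-base word, pooled with its reverse complement, received an E-score (modified Wilcoxon-Mann-Whitney statistic) from the Universal PBM Analysis Suite.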

| Sequence | PBM E-score |
| --- | --- |
| CAGAGACA | -0.2 |
| ACACCTCT | -0.0108 |
| CGATTACG | -0.128 |
| CGTATTCA | 0.0955 |
| ATATCGAC | 0.12 |
| ATACCAGC | -0.0813 |
| AGGTTGAT | -0.181 |
| ATTTGAAG | -0.0814 |
| GACCTACC | 0.0277 |
| CCGACTCA | 0.093 |
| CAAGAGTA | -0.0895 |
| GAGACCAC | -0.156 |
| CGATCGGA | 0.196 |
| AGTTTGTA | 0.031 |
| AATCGAAA | -0.0443 |
| CTCATGTA | -0.0526 |
| GCAACGAC | -0.0375 |
| AAAGCGGG | -0.00019 |
| TATAGAGA | -0.376 |
| CGCGACTC | 0.02 |
| CGTGACAC | 0.134 |
| AGCAGATG | -0.267 |
| CCATTTCA | -0.207 |
| GCCCCTTA | -0.0381 |
| ACTCTTCG | -0.073 |

| Sequence | PBM E-score |
| --- | --- |
| GCCCTAAA | -0.219 |
| ACCAAACG | -0.123 |
| GAGTTTAC | 0.0528 |
| ACTCCAGT | -0.118 |
| CTACTGTC | -0.095 |
| ACTAACAT | 0.11 |
| AGTACGAG | 0.107 |
| AACGGCGT | -0.065 |
| CGACTTAG | -0.224 |
| GCTAACTA | 0.0799 |
| GAGTTCGA | 0.0915 |
| AATCGGGG | 0.143 |
| AGAAGAAA | -0.0697 |
| AATATAGC | 0.0191 |
| CGCGGGGC | 0.304 |
| GCTAGCAA | -0.169 |
| CAGCCGCC | 0.22 |
| ACTAGAGC | -0.0831 |
| ACATAGGA | -0.164 |
| GCTCTCGA | -0.108 |
| GAGGTCCC | 0.105 |
| AATTATCG | 0.117 |
| TGCGCACA | 0.0876 |
| TACTAGTA | -0.0111 |
| ATATTACC | 0.0536 |

| Sequence | PBM E-score |
| --- | --- |
| CGTGGAAG | 0.208 |
| CGCCTTAA | -0.0423 |
| GGGGGACA | 0.0303 |
| CATTCACG | -0.0839 |
| GGTGTGGA | -0.024 |
| GGACCTAA | 0.129 |
| ATCACTTC | 0.0927 |
| CCCTTAAC | -0.264 |
| AGACCCTC | -0.101 |
| ATATAATA | 0.0909 |
| GGGTAACA | -0.0538 |
| CACGCGTC | 0.287 |
| CGCCATGC | 0.0232 |
| CGCCGTGA | 0.132 |
| CACGGGGC | 0.166 |
| AGAGGTCA | -0.0324 |
| CTTTTGTA | -0.045 |
| AGCGAGAC | -0.0802 |
| CTCATGCC | -0.0302 |
| ACGACGGG | 0.203 |
| GTGGTGAA | 0.0159 |
| TGCAACCA | -0.00155 |
| CCTGGACA | -0.158 |
| CCTAGTAC | -0.131 |
| CTGCACCA | -0.142 |

| Sequence | PBM E-score |
| --- | --- |
| CCAGGCAA | 0.0459 |
| CACGGGCA | 0.161 |
| CAGTAACC | 0.0793 |
| GGTTATCA | -0.123 |
| CTTCTGGC | -0.184 |
| AACTTTGT | 0.158 |
| ATTCCCCA | 0.00687 |
| GGGTTAAC | 0.168 |
| AGCAAACA | 0.0356 |
| CAGCGTCA | -0.2 |
| CCAGGTCA | -0.207 |
| CATTGAGA | -0.11 |
| GGATTCCC | 0.231 |
| CGTTCAAA | -0.0369 |
| CATTGCGA | 0.0437 |
| AGTTCCTG | -0.0933 |
| TGGCTCAA | -0.246 |
| AATCTGAT | 0.0354 |
| CCTCTTAC | -0.214 |
| CCAAAGCA | 0.0272 |
| AATTACCC | 0.0427 |
| CCAGAACC | -0.0209 |
| CAGAATGA | -0.0391 |
| GAAATGAA | 0.154 |
| ATCCTTGC | -0.0659 |

| Sequence | PBM E-score |
| --- | --- |
| AACCATTG | -0.191 |
| ACTACCTA | -0.143 |
| CCCTAGCA | -0.214 |
| GCTCTGCC | -0.0992 |
| CGACGAAG | 0.00229 |
| GTGTAGAA | -0.222 |
| CTATAGAC | -0.235 |
| AGCTTGGG | 0.0879 |
| GGTTTGCA | 0.069 |
| CGGAATAA | 0.422 |
| ATGGTAAA | 0.0447 |
| AAGATCGT | -0.137 |
| CTTTTTAC | -0.0559 |
| CACTGCAC | -0.154 |
| AGTTCTTG | -0.0977 |
| TGCACAAA | -0.235 |
| AGCCATAC | -0.325 |
| CCCGGATC | 0.419 |
| CAGGGTCG | 0.131 |
| CTCTTTTA | -0.383 |
| AAAGATCC | 0.0608 |
| AGGTTCCG | 0.478 |
| GATGTTGC | 0.11 |
| ACAGACTC | -0.159 |
| GCTGCCAA | -0.0664 |

| Sequence | PBM E-score |
| --- | --- |
| CACCCACG | 0.209 |
| ATATGGCA | -0.172 |
| ACCAGTTA | -0.0626 |
| CGCTGTCA | -0.0586 |
| AATCCTCG | -0.119 |
| AGTGTCTC | -0.136 |
| CCGTTTAA | 0.147 |
| GTGTGTGA | -0.0291 |
| GAATGGTA | -0.103 |
| ATGGCAAC | 0.0596 |
| AAATCGTA | -0.103 |
| GTTCTTCA | -0.074 |
| CACACAGG | 0.0218 |
| ACTCGTCA | -0.167 |
| CTTAGGGA | -0.353 |
| AAGTTAGG | -0.117 |
| AGTGTCAG | -0.135 |
| ACTCCATC | 0.252 |
| GGACCCTA | -0.03 |
| GCTGCGGA | 0.272 |
| GTGTATCA | 0.00324 |
| CAGCACAC | -0.275 |
| ACAACAAG | -0.138 |
| ACGTGCAT | -0.256 |
| CTAGCACA | -0.228 |

| Sequence | PBM E-score |
| --- | --- |
| ACTTCCCC | -0.132 |
| TTCGACAA | -0.036 |
| CCCCAACG | 0.0159 |
| CGAGTAAC | 0.0595 |
| CACAGCGC | 0.161 |
| GTCCTAAC | -0.255 |
| CAATCGTA | -0.0642 |
| AAGGGGGG | -0.396 |
| ACTAGGGC | -0.218 |
| CGCCGCCG | 0.294 |
| ATCCAAAG | -0.0915 |
| CAGTACTG | 0.0824 |
| ATGGATGC | -0.132 |
| ATTAACCG | 0.313 |
| GACTCTAC | -0.224 |
| TACTGGAA | -0.046 |
| CGGTCTAG | -0.00415 |
| GGAGGGCA | -0.158 |
| AAAATACG | -0.0516 |
| CAATTTCA | -0.14 |
| GTGTTGGA | -0.0442 |
| CACCTTAA | -0.092 |
